Test results: paper PMC10726135
The list shows a part of the results. At the low end of the ranking the order means little. The protein was read in a cell extract, so binding may be indirect.

Biological target: T1, HNF4alpha2 (COS-7 nuclear extract) (UniProt P41235)
T1 sequence: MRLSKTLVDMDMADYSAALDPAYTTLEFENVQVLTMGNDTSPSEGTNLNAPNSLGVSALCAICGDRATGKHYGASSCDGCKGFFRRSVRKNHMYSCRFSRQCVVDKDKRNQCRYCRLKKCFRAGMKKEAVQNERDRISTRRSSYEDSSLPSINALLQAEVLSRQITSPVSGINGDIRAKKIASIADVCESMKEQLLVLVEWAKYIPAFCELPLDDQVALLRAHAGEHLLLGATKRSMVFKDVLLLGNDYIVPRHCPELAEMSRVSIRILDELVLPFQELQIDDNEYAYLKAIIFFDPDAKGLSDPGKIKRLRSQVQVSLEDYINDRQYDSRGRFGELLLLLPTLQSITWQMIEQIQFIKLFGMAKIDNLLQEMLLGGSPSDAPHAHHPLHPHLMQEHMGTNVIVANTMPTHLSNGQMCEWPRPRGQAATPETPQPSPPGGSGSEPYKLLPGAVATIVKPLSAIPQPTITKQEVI
Assay: protein-binding microarray
Settings: COS-7 nuclear extract on double-stranded Agilent 4x180k PBM; binding buffer, salt, pH and temperature not given; high values mean tight binding; double strand, one strand shown; sequences stand for … in …GCCTAGGGAGATTAGAGTATCGGTCGA

Row | Sequence | binding signal (log2 normalized intensity)
1 | TACCCCTGTGGTTGACCTTTAGTCTCTAGC | 6.48
2 | CCCTCAGGGAATCCTGCATTATCAGGCAAG | -0.878
3 | CCAGACAGGGGGGCGCCTACGGACGGGTAA | -1.14
4 | GCAGGGAGGAGCGCATCGGGCGCCAGCGCC | -1.05
5 | ATTTCACCCAGGTATGACAAGCATGCACTG | -1.07
6 | GCCTTTTACCTTGGCAGCCACTGAGGCTCT | -1.21
7 | CTGACTGGAAGAGCCTGCAAGGGAGACCAG | -1.07
8 | GAAAGTAGTTGGGGATTGTGTAACATCTAA | -1.11
9 | AGGTAGGGCCTACCTGCCTGAGCTATCTGT | -1.08
10 | CACTCCCACACTGGTAACCTTTAGTCTCCA | 3.28
11 | TATTCCATATCAGCTTTCTTTTCCAACCAT | 1.48
12 | AACAAAAAGGGCAAAGGTCAGCTCATTCCC | 6.63
13 | TTGGACTTTGGTCATCCTTTACTTTCCCAA | 5.18
14 | GCAAATAGGATTAGGAAACCTGGTAGCGTG | -1.02
15 | AACTTGTTTTTGATTTTGCAGGCTGATAGG | 1.59
16 | AGATAAATAAATCAAGATCACTGCCTTGGA | -1.2
17 | ATCAGAGTCCAGCTGTGCCCCAGTCCTTCA | 1.13
18 | GGACTGGGCTGGAACACAAAGAAAGCCAAA | -1.04
19 | TTCCCTGTCGCTATCTTATCTGGGCCAGGT | 1.44
20 | GGGCTAGAGCTTAAAAGCCCAACACGGGCG | -0.994
21 | GCCAGCACAGGAGGCCTCTCAAAGCAGGAT | -1.14
22 | TGGGCTGGGAGCTAATGAGCACATTCTTCA | -1.2
23 | GACAGAAACCAAGCTGTCCGACTGCACACC | -1.17
24 | CTGTCGGAATTTGCCCTGTGGTCTAGCTTG | 1.78
25 | GAATGTATTGAGAAGAAACCTTTGCCCAAC | 2.79

Row | Sequence | binding signal (log2 normalized intensity)
26 | ACCTTTGATCATTTGAGGGTGACACTGCTC | 1.55
27 | GACAGGATGGGGGTGGGAGGCTGGGAGGAG | -1.23
28 | AGCGGGGGCAAGCCCACTCTCTGAGTCTGA | -1.03
29 | CCCTTGGCCTACTTAGTCCAGGTTTAGCAA | -0.896
30 | CAGCACCAAGAACAAACAAAAACCAAAAAA | -1.06
31 | CAAATATTTGCCTAGGATTCTGGGAGGGGA | -1.02
32 | TCAGTGAGCCTTGACCTTCATGCTACTGTG | 1.62
33 | CCAAAGAAGCCACAGAAGTCTTTCCCTGCC | -0.999
34 | AACATGTAGGTCAAAGAATGCCTGGGTCAA | 1.92
35 | TTAGGTGCTGAGCAACTATAAAACAGGAAA | -0.703
36 | AAGATTCAGAACCCATTAATTTAGCACTTA | -1.01
37 | AGAGGTATCATGAGGTATATTCAACCCCCA | 4.13
38 | CATGTTTGGGTCACAATCACAAATGCCTTC | 0.579
39 | GGGCTGGGGAAACAAAATAATAGTTGACCT | 4.21
40 | TCCCATGGCTAATCTGTGACTGAGCAGAGA | -1
41 | AGCTGTCTGGTTTGACCTTAAGTCAGAAGA | 3.26
42 | TTCCTCAGATGGAATGTGTGCCCGTCACCT | 1.74
43 | TTTAATGATGAGTCCAAGTTCCACATCAAG | 0.978
44 | CGTCCGCGGAAGCACACACGAGCTGTGCGC | -1.05
45 | CCTATTCTGAAGATTGCTAGCTGAGAGACT | -1.08
46 | TTCAGGGAGACTTCCAGGGAATAAAGAACT | -1.1
47 | GGGTCAAGAAGACCTGGGCTCAAATCTGGA | -0.949
48 | AATCCTCCACTCTCCAAAATAGGGTAGTTT | 1.02
49 | TATTAGGAAATTGTCAGTGCCCTATACAGA | 0.206
50 | AAGGGTCCAGATTAGAGCACAATGTGGGGA | -0.716

Row | Sequence | binding signal (log2 normalized intensity)
51 | CATGAATCCATCCCACCTCACTTATCACAT | 1.02
52 | GGATCCGCAGCCAGGGCTGTTTTCTCCAGT | -1.14
53 | GAGCAAAGCTGATAAAGAGGACAGAGCCTG | -0.895
54 | TTGCCATGTGACAATTCTTCCTTCATCTGG | 1.05
55 | TAGCATAATCAAAGAGAAAAACATTGCATA | -0.835
56 | AGAATCTAATCAGGCCTCCCTCCCTCCCCC | 5.6
57 | GGCTTAAACCTTTAATGATGAGTCCAAGTT | 2.35
58 | GCCCAGAGGAAGGAATGCACATGCCTTAAG | -1.2
59 | GAATTGTCTAACCGCAGCAAGACACTTCCA | -1.21
60 | AATGGATGGCAAATAAAGGAACTCTTATCT | -0.765
61 | AGTGCTATCCCTGGAGCCTTAGAAGATGAC | -1.08
62 | CACAAGCTGGGTCAACATCAGCCCTCCTAG | 1.49
63 | GCATCACTCTTGCCACAGAACAGGCTGTTT | -0.686
64 | TCATCTTCAAAGCCAGCAATGGCAGGTCCA | 1.41
65 | ATAGTCATTCTTCTACAGTGTTTACCGGAT | 2.14
66 | TCCTCACCCCACTTTGGTTCACCGCTCACT | 1.21
67 | GTGGCTATGGCTGGGATATCAGGTATTGCC | 0.099
68 | TCTGGTCAGACTGAGAGAGCAGGGCCCGAG | -1.11
69 | GGAAGGTTTCACCCTGAGGAATCCCATTCC | -1.07
70 | CCTGTGTGTACTGGGCAGATAACAGCGAAC | 0.177
71 | CCAGGCGACTGGGCCAGGAGCAGGAGCAGA | -1.06
72 | TGCCAACAGGTGCTCTTTATCAGCACCAAG | -1.15
73 | CTCTGGATGCAGGTCGCCGGGAAAACCCGG | -1.11
74 | CAAGAGGTTTTAGGCTATCAGACAGCCACA | -0.99
75 | CTATAGAGGCAGTGAGCCTTGCCGTGCTGC | -1.09

Row | Sequence | binding signal (log2 normalized intensity)
76 | TGACTGAGCTCGCGCCGGGCACTGATAACG | -1.01
77 | TACATAACAATGCAAGATAAAAGTGAGCAA | -1.12
78 | CCCTGGGGGTGGGGGTGTGGGTAGCAGCTG | -1.01
79 | TCTTGTGGCCATTTGGGAAACCGCGATTAA | -0.6
80 | CTCCCACATCTTTAATTATCATCTCTGTGT | 1.77
81 | TGGCTTGGAACTGACATGCTGTCACTTCTG | -1.04
82 | CAGCTTTGAAGTGCTTCCTGTGTATTTCTT | 1.35
83 | TGGGACTGGCAAAGCCATGAAGCAATTCTG | -1.12
84 | CTTAACTTGGTTTCCCTGGAAACAGATAAA | -0.758
85 | ACACTGCCATTTAAAAGTTTCCCTTGATCA | 0.876
86 | GGCGGCTAGTGTACAGGTGACCTTTGGAAT | 8.95
87 | ACACAGACACACATGAGCTAGTGCTAAAGG | -0.851
88 | CTGCCATAAACTTCTCCCCCACATGGAAAC | 3.9
89 | AGCTTGCTCTCACCAGCTTCTTCTCTTTGA | -1.07
90 | CCTCCTGCTTAGCGGCCTTCCCCTTTTTCT | 1.96
91 | AAAAGTCCAGCTGCCAGGGAGACAAAGTGT | -0.469
92 | TGGGGATAAACACCCCCATCTATGCACTCT | 0.81
93 | AATAAACTGAGGGGTGGGGACCAGTGGGGG | -1.04
94 | AGAAAGACATGTTTCTAACTGCCCGCATTC | 0.246
95 | GGGCAAAGGTCAGGATCTCAGCCGCGCGGC | 4.1
96 | GCATGCCTCCCAGAGCATTGTTTATTGTTG | 1.27
97 | GGCATTGTGTTACGTCTGGTTTCTTATCTT | 1.34
98 | CAGTTAACGGGGACGCTTTAGAGAAACGCA | -0.92
99 | CGGCAGAACTGGTGACCGGACACAAAAGCT | -1.21
100 | AGGTAACGTAAACAAGTAAGGAAGACAAGA | -1.1

Row | Sequence | binding signal (log2 normalized intensity)
101 | GCGACCCAGGCAGCCCCTTTGCTCCACACA | -0.966
102 | CCTCCCAGCCTGGAGGAGGGCGAGGCCGAG | -1.09
103 | ACCTGCTGGAATGTTTCAAGTGGCCTGATT | 1.29
104 | TGGACAGCAGACAACTTTTCCTCTAACCAC | -1.19
105 | TACCTGTACGTTACTCTGTACCTCGTGGGT | 1.53
106 | CTACATTCTAGATGACCCCTCTCTACTGGT | 3.61
107 | GCTCCATACTCCTTATCTTGGCTGTAAGAT | 1.39
108 | CTGGACCTCATCTTCCTCCCCAATATGGTC | 2.37
109 | GTAGGGCCCCCAGCCAGGCCCCAGGCCAAC | 3.64
110 | CTCCACTTGGGTATCAGATAGTCCAATGTC | 2.04
111 | ATTCCAGCTATTCTGCCTTATCAGCGGCCC | -0.984
112 | GACACCAAAGGTCACGTTCCAGCTGCTTCA | 2.08
113 | GATTAGAGAGCAGGTGATAAGGAACTGTTA | -0.819
114 | TCTTCTTCACCGGAGATTTACATTCCAGAG | 0.554
115 | CACAGAAATCCAAAGGTCAACAGCCAGCCT | 3.53
116 | ACCTCTGCTCCCAAAGCAAACCTCCCCAGC | 3.75
117 | CTTATTATCTTCAATGATAAGGAATGAGGA | 0.423
118 | ACAGGTTTCTGTCCTGGTCACAGTAACAGG | -0.431
119 | ATAGATAAGAAAGGCTACAAAGGTGACTTG | 0.608
120 | CCGGCAAGTCTGAAATCTACAGGACAGCCA | -1.12
121 | AGGTGGTTCTTTCTGAGTTGCATGAATTTA | 1.33
122 | TGCAGTTTCCCTATTCTCAGTGATATAAAA | 0.994
123 | AAGAGGCTCTAGATCTCAAAGTCCAAATAG | 4.24
124 | CATATCACAGGAGAAAACAGCACAAGCAAT | -1.04
125 | TGTTCTCTTGGCCAACAACTAGGGCAAAGG | 2.57

Row | Sequence | binding signal (log2 normalized intensity)
126 | AACTGTGGACTCGCTGCCTTTTATCCCTTT | 1.23
127 | TATACAAGAAAGAAAGAATGTTTGCTTCTG | -0.716
128 | CAGCTGTTATCTCTTTTGTGATAGAATGAA | 1.92
129 | TGACCTTTGCATTCTTACCCAAGCCCCAAA | 3.73
130 | CCCCTTGATGCATCAGACCCCTGAGTTTCG | 3.05
131 | TGACAGTCCAAGGACTCAATGATACCATCA | -1.16
132 | GACTTTGAACTTCATGTGTGGTGCAGATTC | 1.97
133 | TCATTCATCCAAGGACTTTGTAATCATATT | 2.24
134 | AAGGCCGGAGGGCGGGGCGGGGCAGCAGGG | -1.13
135 | ACAAATGAGGGGACAAAGTTCGTGGAAAGT | 2.91
136 | GTTCACCTTTCCCTTCTTCTCCTCCCAACA | 2.91
137 | TGGGAAGCTGGCACAGCAGATGCTGGGCAA | -1.18
138 | AAGAACATTCCAGCTTTGAAGTGCTTCCTG | 0.00809
139 | AGGAATGTGAAATGAATTTACAAACAAATG | -0.996
140 | ATACAACTAGGCTACATGATACAGCCTTTT | -1.08
141 | TCTGGGTGGGGGTGGAGGCAGCAGCTCCAA | -1.17
142 | GAGGAGCGCATCGGGCGCCAGCGCCCCCGT | 0.779
143 | GGGATAGGCAGGAGTTAACTAACAAAAGCA | -1.08
144 | GTGGCTCACAAATGGAGTTTGGTTTAAAGT | 1.62
145 | TTTGGCCTGCTGAGCCCAATCTAGCAAAAA | -1.08
